According to patent USRE37839E1, “O-benzyloxime ethers and crop protection agents containing these compounds” (BASF Aktiengesellschaft, priority 1990, dated 2002):
Where two headings read alike, the source gives them in different places.

Tested on: spider mite Tetranychus telarius
Conditions: assessed after 5 days
Procedure: Potted bush beans which had developed the first pair of true leaves and were heavily infested with all stages of the spider mite Tetranychus telarius were sprayed to runoff in a spray cabinet with aqueous formulations of the active ingredients. The plants were placed on a rotating disc and sprayed from all sides with 50 ml of spray liquor. The plants were heavily infested with mites and numerous eggs had been laid on them. The action was assessed after 5 days by means of a binocular microscope. During this period, the plants were kept under normal greenhouse conditions.

COC=C(C(=O)OC)c1ccccc1CON=C(C#N)C(C)C [49 (Table I)]
Mortality in % (application rate 100 ppm): 80%

COC=C(C(=O)OC)c1ccccc1CON=C(C#N)OC1CCCCO1 (stereo not drawn) [429 (Table I)]
Mortality in % (application rate 1000 ppm): 100%

COC=C(C(=O)OC)c1ccccc1CON=C(C#N)C(C)(C)OC [Compound no. 36 (Table I)]
Mortality in % (application rate 100 ppm): 80%

CCOC(C)(C)C(C#N)=NOCc1ccccc1C(=NOC)C(=O)OC [Compound no. 37 (Table II)]
Mortality in % (application rate 1000 ppm): 100%

CCCOC(C)(C)C(C#N)=NOCc1ccccc1C(=COC)C(=O)OC [Compound no. 38 (Table I)]
Mortality in % (application rate 40 ppm): 100%

COC=C(C(=O)OC)c1ccccc1CON=C(C#N)C(C)(C)OC(C)C [Compound no. 39 (Table I)]
Mortality in % (application rate 100 ppm): 100%

CON=C(C(=O)OC)c1ccccc1CON=C(C#N)C(C)(C)OC(C)C [Compound no. 39 (Table II)]
Mortality in % (application rate 1000 ppm): 100%

COC=C(C(=O)OC)c1ccccc1CON=C(C#N)C(C)(C)SC [Compound no. 43 (Table I)]
Mortality in % (application rate 1000 ppm): 100%

COC=C(C(=O)OC)c1ccccc1CON=C(C#N)C(C)(C)SC(C)(C)C [Compound no. 45 (Table I)]
Mortality in % (application rate 1000 ppm): 100%

CON=C(C(=O)OC)c1ccccc1CON=C(C#N)C(C)(C)SC(C)(C)C [Compound no. 45 (Table II)]
Mortality in % (application rate 1000 ppm): 100%

COC=C(C(=O)OC)c1ccccc1CON=C(C)c1ccccc1Cl [Compound no. 573 (Table I)]
Mortality in % (application rate 20 ppm): 100%

COC=C(C(=O)OC)c1ccccc1CON=C(C)c1cc(Cl)ccc1Cl [Compound no. 579 (Table I)]
Mortality in % (application rate 20 ppm): 80%

COC=C(C(=O)OC)c1ccccc1CON=C(C)c1cc(Cl)cc(Cl)c1 [Compound no. 582 (Table I), Methyl 3-methoxy-2-[2′-[1″-(3′″,5′″-dichlorophenyl)-1″-methyl]-iminooxymethyl]-phenylacrylate]
Mortality in % (application rate about 20 ppm): 100%

COC=C(C(=O)OC)c1ccccc1CON=C(C)c1ccc(Cl)c(Cl)c1Cl [Compound no. 583 (Table I)]
Mortality in % (application rate 40 ppm): 100%

COC=C(C(=O)OC)c1ccccc1CON=C(C)c1cccc(Br)c1 [Compound no. 592 (Table I)]
Mortality in % (application rate 40 ppm): 100%

COC=C(C(=O)OC)c1ccccc1CON=C(C)c1ccc(Br)cc1 [Compound no. 593 (Table I), Methyl 3-methoxy-2-[2′-(1″-(4′″-bromophenyl)-1″-methyl)-iminooxymethyl]-phenylacrylate]
Mortality in % (application rate 1000 ppm): 80%

COC=C(C(=O)OC)c1ccccc1CON=C(C)c1ccccc1C(F)(F)F [Compound no. 704 (Table I)]
Mortality in % (application rate about 20 ppm): 100%

COC=C(C(=O)OC)c1ccccc1CON=C(C)c1cccc(C(F)(F)F)c1 [Compound no. 705 (Table I)]
Mortality in % (application rate 40 ppm): 100%
